B1: Anti-FOLR1x2; Anti-DLL3x2; (GGS)3 (bispecific antibody)
chain: QVQLVESGGGLVQPGGSLRLSCAASGFTVSNSVMAWYRQTPGNEREFVAIINSIGITNYADSVKGRFTISRDNSKNTLYLQMNSLRAEDTAVYVCNRNFDRIYWGQGTLVTVSSGGSGGSGGSEVQLVESGGGEVQPGGSLRLSCAASGSIFSINAMGWYRQAPGKQRELVAGFTGDTNTIYAESVKGRFTISRDNAKNTVYLQMSSLRAEDTAVYYCAADVQLFSRDYEFYWGQGTLVTVK[left out - human IgG1 Fc]
B2: Anti-FOLR1x2; Anti-DLL3x2; (GGGGS)3 (bispecific antibody)
chain: QVQLVESGGGLVQPGGSLRLSCAASGFTVSNSVMAWYRQTPGNEREFVAIINSIGITNYADSVKGRFTISRDNSKNTLYLQMNSLRAEDTAVYVCNRNFDRIYWGQGTLVTVSSGGGGSGGGGSGGGGSEVQLVESGGGEVQPGGSLRLSCAASGSIFSINAMGWYRQAPGKQRELVAGFTGDTNTIYAESVKGRFTISRDNAKNTVYLQMSSLRAEDTAVYYCAADVQLFSRDYEFYWGQGTLVTVK[left out - human IgG1 Fc]
B3: Anti-FOLR1x2; Anti-DLL3x2; (GGS)4 (bispecific antibody)
chain: QVQLVESGGGLVQPGGSLRLSCAASGFTVSNSVMAWYRQTPGNEREFVAIINSIGITNYADSVKGRFTISRDNSKNTLYLQMNSLRAEDTAVYVCNRNFDRIYWGQGTLVTVSSGGSGGSGGSGGSEVQLVESGGGEVQPGGSLRLSCAASGSIFSINAMGWYRQAPGKQRELVAGFTGDTNTIYAESVKGRFTISRDNAKNTVYLQMSSLRAEDTAVYYCAADVQLFSRDYEFYWGQGTLVTVK[left out - human IgG1 Fc]
B4: Anti-FOLR1x4 (GGGGS)3 (Fc fusion)
chain: QVQLVESGGGLVQPGGSLRLSCAASGFTVSNSVMAWYRQTPGNEREFVAIINSIGITNYADSVKGRFTISRDNSKNTLYLQMNSLRAEDTAVYVCNRNFDRIYWGQGTLVTVSSGGGGSGGGGSGGGGSQVQLVESGGGLVQPGGSLRLSCAASGFTVSNSVMAWYRQTPGNEREFVAIINSIGITNYADSVKGRFTISRDNSKNTLYLQMNSLRAEDTAVYVCNRNFDRIYWGQGTLVTVSS[left out - human IgG1 Fc with C220S (EU numbers)]
B5: Anti-FOLR1x4 (GGS)4 (Fc fusion)
chain: QVQLVESGGGLVQPGGSLRLSCAASGFTVSNSVMAWYRQTPGNEREFVAIINSIGITNYADSVKGRFTISRDNSKNTLYLQMNSLRAEDTAVYVCNRNFDRIYWGQGTLVTVSSGGSGGSGGSGGSQVQLVESGGGLVQPGGSLRLSCAASGFTVSNSVMAWYRQTPGNEREFVAIINSIGITNYADSVKGRFTISRDNSKNTLYLQMNSLRAEDTAVYVCNRNFDRIYWGQGTLVTVSS[left out - human IgG1 Fc with C220S (EU numbers)]

T2 sequence (P15328 25-234 limits assumed): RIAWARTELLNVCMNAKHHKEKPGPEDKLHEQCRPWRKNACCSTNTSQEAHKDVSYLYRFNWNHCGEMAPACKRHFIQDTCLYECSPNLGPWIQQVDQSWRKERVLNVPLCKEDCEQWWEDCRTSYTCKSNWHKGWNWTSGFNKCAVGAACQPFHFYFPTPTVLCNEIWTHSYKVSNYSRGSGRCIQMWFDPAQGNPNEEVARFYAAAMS

One experiment has as its target T1, mFOLR1 (mouse, UniProt P35846 25-232, limits assumed).
T1 construct: also called Mouse FOLR1; murine FOLR1
The experiment can be described thus: ELISA. On the technique in general: An ELISA detects its analyte on a solid surface through an enzyme-linked reagent.
For orientation: EC50 means the concentration giving half of the maximal effect. Read a high EC50 as lower potency in that assay. In turn, B1 yielded an EC50 of 0.09 nM.

Regarding B2, the 50% effective concentration (EC50) amounted to 0.08 nM.

B3 yielded an EC50 of 0.07 nM.

The next experiment deals with T2, hFOLR1 (human, UniProt P15328 25-234, limits assumed).
T2 construct: also called Human FOLR1; human FOLR1
Nature of the experiment: ELISA.
Molecule B2 gave a half-maximal effective concentration (EC50) of 0.13 nM.

With B3, it took 0.11 nM to reach a half-maximal effect (EC50).

Consider B4, for which it took 0.12 nM to reach a half-maximal effect (EC50).

B5 showed an EC50 of 0.14 nM.

A further experiment has as its target T3, hDLL3 (human, UniProt Q9NYJ7 27-492, limits assumed).
T3 construct: also called human DLL3 soluble protein
T3 sequence (looked up): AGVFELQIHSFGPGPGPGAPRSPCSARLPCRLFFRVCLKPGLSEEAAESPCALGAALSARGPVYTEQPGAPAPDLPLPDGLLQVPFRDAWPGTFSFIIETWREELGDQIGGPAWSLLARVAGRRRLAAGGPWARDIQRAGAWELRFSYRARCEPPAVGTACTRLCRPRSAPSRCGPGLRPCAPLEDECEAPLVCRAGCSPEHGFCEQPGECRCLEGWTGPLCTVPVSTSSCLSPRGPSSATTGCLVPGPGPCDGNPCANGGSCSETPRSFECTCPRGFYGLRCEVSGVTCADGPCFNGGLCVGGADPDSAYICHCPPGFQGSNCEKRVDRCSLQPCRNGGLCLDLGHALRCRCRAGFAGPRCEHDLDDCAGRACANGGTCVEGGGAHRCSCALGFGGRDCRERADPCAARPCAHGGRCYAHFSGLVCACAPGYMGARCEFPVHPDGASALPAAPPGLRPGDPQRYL
Nature of the experiment: BLI (Octet), captured on AHC sensor, antigen in solution. Background: BLI is a label-free optical method that tracks binding on a fibre tip over time.
A word on the Kd: it is a measure of binding affinity in units of concentration. Read a high Kd as a looser complex. As usually defined, the koff is the first-order rate constant of dissociation. A higher koff goes with a short-lived complex. As a reminder, the kon is the second-order rate constant of association. Read a high kon as faster complex formation. Regarding B1, the Kd worked out at 1.43 nM, the koff is 0.000312 s⁻¹ and the kon was 219000 M⁻¹ s⁻¹.

In turn, B2 yielded a Kd of 1.53 nM, a koff of 0.000306 s⁻¹ and a kon of 200000 M⁻¹ s⁻¹.

B3: the Kd stood at 1.24 nM, the koff worked out at 0.000267 s⁻¹ and the kon was 215000 M⁻¹ s⁻¹.

In a further experiment the target is T1, mFOLR1. Described as above.
T1 sequence (P35846 25-232 limits assumed): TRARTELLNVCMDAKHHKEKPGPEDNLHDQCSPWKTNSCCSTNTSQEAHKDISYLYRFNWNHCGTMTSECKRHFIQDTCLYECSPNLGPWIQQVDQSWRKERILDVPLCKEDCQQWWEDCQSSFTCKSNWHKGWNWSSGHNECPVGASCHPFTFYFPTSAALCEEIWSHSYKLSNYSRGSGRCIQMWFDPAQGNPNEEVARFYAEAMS
B1 gave a Kd of 7 nM, a koff of 0.00399 s⁻¹ and an on-rate constant (kon) of 553000 M⁻¹ s⁻¹.

B2: binding was characterised by a dissociation constant (Kd) of 8.32 nM, the koff is 0.00407 s⁻¹ and the kon came out at 490000 M⁻¹ s⁻¹.

Molecule B3 registered a dissociation constant (Kd) of 7.99 nM, a koff of 0.00386 s⁻¹ and a kon of 483000 M⁻¹ s⁻¹.

Another experiment has as its target T2, hFOLR1. Described as above.
With B2, binding was put at a Kd of 2.75 nM, the dissociation rate constant (koff) was 0.00111 s⁻¹ and the kon stood at 405000 M⁻¹ s⁻¹.

B3 gave a Kd of 2.32 nM, a koff of 0.000932 s⁻¹ and an on-rate constant (kon) of 401000 M⁻¹ s⁻¹.

B4: the affinity, expressed as Kd, was 2.86 nM; the koff was 0.000953 s⁻¹; the kon is 333000 M⁻¹ s⁻¹.

For B5, binding was characterised by a dissociation constant (Kd) of 2.85 nM, the koff came out at 0.000853 s⁻¹ and the kon is 299000 M⁻¹ s⁻¹.
